Measured values reported in US20110091463A1 (AbbVie / Abbott, published 2011).

T1: IL-6R on TF-1 cells (UniProt P08887 20-468, limits assumed)
T1 sequence (looked up): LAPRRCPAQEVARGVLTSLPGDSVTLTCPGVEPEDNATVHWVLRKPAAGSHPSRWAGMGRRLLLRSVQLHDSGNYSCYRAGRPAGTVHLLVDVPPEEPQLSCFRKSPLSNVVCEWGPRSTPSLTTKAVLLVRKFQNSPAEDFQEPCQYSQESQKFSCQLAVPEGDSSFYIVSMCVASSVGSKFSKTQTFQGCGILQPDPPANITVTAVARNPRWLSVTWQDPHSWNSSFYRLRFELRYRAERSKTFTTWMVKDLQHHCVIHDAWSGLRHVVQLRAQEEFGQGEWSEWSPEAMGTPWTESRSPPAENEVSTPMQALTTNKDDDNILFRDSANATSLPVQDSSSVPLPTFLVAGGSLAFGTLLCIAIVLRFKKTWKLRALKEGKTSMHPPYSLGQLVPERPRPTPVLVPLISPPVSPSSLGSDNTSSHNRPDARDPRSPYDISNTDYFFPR


Legend:
[1] = molecular target: NGF (Neuroscreen-1 bioassay); experiment: cell-based or functional assay
IL-6R on TF-1 cells = molecular target: T1, IL-6R on TF-1 cells; experiment: cell-based or functional assay
Recombinant Human β-NGF = molecular target: T2, Recombinant Human β-NGF (human, UniProt P01138 fragment); experiment: SPR (Biacore), DVD-Ig captured on chip, antigen injected, 25 C
Chain of Recombinant Human β-NGF (P01138 122-241 limits assumed): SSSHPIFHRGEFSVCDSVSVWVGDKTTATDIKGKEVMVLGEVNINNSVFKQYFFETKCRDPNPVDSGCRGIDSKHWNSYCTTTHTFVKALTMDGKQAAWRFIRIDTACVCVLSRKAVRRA
T2 construct: Bought reagent
Protocol: The BIACORE assay (Biacore, Inc, Piscataway, N.J.) determines the affinity of antibodies or DVD-Ig with kinetic measurements of on-rate and off-rate constants. Binding of antibodies or DVD-Ig to a target antigen (for example, a purified recombinant target antigen) is determined by surface plasmon resonance-based measurements with a Biacore® 1000 or 3000 instrument (Biacore® AB, Uppsala, Sweden) using running HBS-EP (10 mM HEPES [pH 7.4], 150 mM NaCl, 3 mM EDTA, and 0.005% surfactant P20) at 25° C. All chemicals are obtained from Biacore® AB (Uppsala, Sweden) or otherwise from a different source as described in the text. For example, approximately 5000 RU of goat anti-mouse IgG, (Fcγ), fragment specific polyclonal antibody (Pierce Biotechnology Inc, Rockford, Ill.) diluted in 10 mM sodium acetate (pH 4.5) is directly immobilized across a CM5 research grade biosensor chip using a standard amine coupling kit according to manufacturer's instructions and procedures at 25 μg/ml. Unreacted moieties on the biosensor surface are blocked with ethanolamine. Modified carboxymethyl dextran surface in flowcell 2 and 4 is used as a reaction surface. Unmodified carboxymethyl dextran without goat anti-mouse IgG in flow cell 1 and 3 is used as the reference surface. For kinetic analysis, rate equations derived from the 1:1 Langmuir binding model are fitted simultaneously to association and dissociation phases of all eight injections (using global fit analysis) with the use of Biaevaluation 4.0.1 software. Purified antibodies or DVD-Ig are diluted in HEPES-buffered saline for capture across goat anti-mouse IgG specific reaction surfaces. […] The association and dissociation rate constants, kₒₙ (M⁻¹ s⁻¹) and koff (s⁻¹) are determined under a continuous flow rate of 25 μl/min. […] The equilibrium dissociation constant (M) of the reaction between antibodies or DVD-Igs and the target antigen is then calculated from the kinetic rate constants by the following formula: KD=koff/kₒₙ. Binding is recorded as a function of time and kinetic rate constants are calculated.

| Binder | N-Terminal VD NGF Inhibition Assay EC50 pM (ERK1/2 phosphorylation in Neuroscreen-1 cells) [1] | C-Terminal VD IL-6 Inhibition Assay EC50 µM (IL-6 induced pSTAT3 in TF-1 cells) (IL-6R on TF-1 cells) | Kd (Recombinant Human β-NGF) | koff (Recombinant Human β-NGF) | kon (Recombinant Human β-NGF) | C-Terminal VD NGF Inhibition Assay EC50 pM (ERK1/2 phosphorylation in Neuroscreen-1 cells) [1] | N-Terminal VD IL-6 Inhibition Assay EC50 µM (IL-6 induced pSTAT3 in TF-1 cells) (IL-6R on TF-1 cells) |
| --- | --- | --- | --- | --- | --- | --- | --- |
| DVD1206 (bispecific antibody, human IgG1, kappa) heavy: EVQLVESGGGLVQPGGSLRLSCAASGFSLTNNNVNWVRQAPGKGLEWVGGVWAGGATDYNSALKSRFTISRDNSKNTAYLQMNSLRAEDTAVYYCARDGGYSSSTLYAMDAWGQGTLVTVSSASTKGPEVQLQESGPGLVRPSQTLSLTCTVSGYSITSDHAWSWVRQPPGRGLEWIGYISYSGITTYNPSLKSRVTMLRDTSKNQFSLRLSSVTAADTAVYYCARSLARTTAMDYWGQGSLVTVSS[human IgG1 constant region not written out] light: DIQMTQSPSSLSASVGDRVTITCRASEDIYNALAWYQQKPGKAPKLLIYNTDTLHTGVPSRFSGSGSGTDYTLTISSLQPEDFATYFCQHYFHYPRTFGQGTKVEIKRTVAAPDIQMTQSPSSLSASVGDRVTITCRASQDISSYLNWYQQKPGKAPKLLIYYTSRLHSGVPSRFSGSGSGTDFTFTISSLQPEDIATYYCQQGNTLPYTFGQGTKVEIKRTVAAPSVFIFPPSDEQLKSGTASVVCLLNNFYPREAKVQWKVDNALQSGNSQESVTEQDSKDSTYSLSSTLTLSKADYEKHKVYACEVTHQGLSSPVTKSFNRGEC | 7.5 pM | 0.103 µM | – | – | – | – | – |
| DVD1218 (bispecific antibody, human IgG1, kappa) heavy: QVQLQESGPGLVKPSETLSLTCTVSGFSLIGYDLNWIRQPPGKGLEWIGIIWGDGTTDYNSAVKSRVTISKDTSKNQFSLKLSSVTAADTAVYYCARGGYWYATSYYFDYWGQGTLVTVSSASTKGPEVQLQESGPGLVRPSQTLSLTCTVSGYSITSDHAWSWVRQPPGRGLEWIGYISYSGITTYNPSLKSRVTMLRDTSKNQFSLRLSSVTAADTAVYYCARSLARTTAMDYWGQGSLVTVSS[human IgG1 constant region not written out] light: DIQMTQSPSSLSASVGDRVTITCRASQSISNNLNWYQQKPGKAPKLLIYYTSRFHSGVPSRFSGSGSGTDFTFTISSLQPEDIATYYCQQEHTLPYTFGQGTKLEIKRTVAAPDIQMTQSPSSLSASVGDRVTITCRASQDISSYLNWYQQKPGKAPKLLIYYTSRLHSGVPSRFSGSGSGTDFTFTISSLQPEDIATYYCQQGNTLPYTFGQGTKVEIKRTVAAPSVFIFPPSDEQLKSGTASVVCLLNNFYPREAKVQWKVDNALQSGNSQESVTEQDSKDSTYSLSSTLTLSKADYEKHKVYACEVTHQGLSSPVTKSFNRGEC | 67.5 pM | 0.202 µM | – | – | – | – | – |
| DVD1219 (bispecific antibody, human IgG1, kappa, DVD-Ig; also called DVD1219H; DVD1219L) heavy: EVQLQESGPGLVRPSQTLSLTCTVSGYSITSDHAWSWVRQPPGRGLEWIGYISYSGITTYNPSLKSRVTMLRDTSKNQFSLRLSSVTAADTAVYYCARSLARTTAMDYWGQGSLVTVSSASTKGPQVQLQESGPGLVKPSETLSLTCTVSGFSLIGYDLNWIRQPPGKGLEWIGIIWGDGTTDYNSAVKSRVTISKDTSKNQFSLKLSSVTAADTAVYYCARGGYWYATSYYFDYWGQGTLVTVSS[human IgG1 constant region not written out] light: DIQMTQSPSSLSASVGDRVTITCRASQDISSYLNWYQQKPGKAPKLLIYYTSRLHSGVPSRFSGSGSGTDFTFTISSLQPEDIATYYCQQGNTLPYTFGQGTKVEIKRTVAAPDIQMTQSPSSLSASVGDRVTITCRASQSISNNLNWYQQKPGKAPKLLIYYTSRFHSGVPSRFSGSGSGTDFTFTISSLQPEDIATYYCQQEHTLPYTFGQGTKLEIKRTVAAPSVFIFPPSDEQLKSGTASVVCLLNNFYPREAKVQWKVDNALQSGNSQESVTEQDSKDSTYSLSSTLTLSKADYEKHKVYACEVTHQGLSSPVTKSFNRGEC | – | – | 0.491 nM | 0.000179 s⁻¹ | 365000 M⁻¹ s⁻¹ | > 5000 pM | 0.0142 µM |
